Source: PubChem BioAssay AID485294 (National Center for Advancing Translational Sciences (NCATS), 2010)
Among all 370,000 compounds or so, about 150 (0.041%) were called active. Inconclusive means that the source gave no clear call. Such entries were picked first, then a sample of the others. Calls come from the whole dose curve; as a rule, active = well fitted inhibition curve with a large enough effect; inconclusive = small, poorly fitted or top-dose-only effect; inactive = flat fitted curve, though single readings scatter. No potency is given beside an inconclusive call; the fits are too rough.

The compounds below were run against Beta-lactamase (Escherichia coli (strain K12)) (UniProt P00811) (assay: qHTS Inhibitors of AmpC Beta-Lactamase (assay with detergent)). Conditions: AmpC hydrolysis of nitrocefin, absorbance 480 nm, 0.01% Triton; series mostly up to 114 µM.
Procedure, shortened: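 AmpC (5.3 nM in the dispensed reagent) in 20 mM phosphate pH 7.0 with 0.01% (detergent screen) or 0.0001% Triton X-100 was preincubated with compounds for 15 min at room temperature. Nitrocefin was then added from an 800 uM solution, and hydrolysis was followed at 480 nm.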
Note: nearly all actives have a fitted effect of over 25% in size.
Potency is the fitted concentration of half-maximal effect; tags give direction and shape of the fitted curve.

Sequence of UniProt P00811 (P00811 whole entry, looked up): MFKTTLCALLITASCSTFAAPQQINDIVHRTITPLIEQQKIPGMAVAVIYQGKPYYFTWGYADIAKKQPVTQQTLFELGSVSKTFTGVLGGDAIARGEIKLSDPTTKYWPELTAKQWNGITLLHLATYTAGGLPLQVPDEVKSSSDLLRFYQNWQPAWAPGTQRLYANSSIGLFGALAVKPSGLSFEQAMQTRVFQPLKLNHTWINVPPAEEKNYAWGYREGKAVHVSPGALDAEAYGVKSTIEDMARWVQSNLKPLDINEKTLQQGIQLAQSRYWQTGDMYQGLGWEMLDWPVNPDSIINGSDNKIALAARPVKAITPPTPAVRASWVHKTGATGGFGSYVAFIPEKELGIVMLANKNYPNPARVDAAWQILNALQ

Row | SMILES | Potency
1 | COc1ccc(CC(=O)NNC(=O)c2ccccn2)cc1 | inactive
2 | Cc1cc(NS(=O)(=O)c2ccc(NC(=O)C(F)(F)F)cc2)nc(C)n1 | inconclusive [inhibitor, full curve, poor fit]
3 | CCc1cccc(CC)c1-n1nnc2c(sc3nc(C)cc(C)c32)c1=O | inactive
4 | Cc1cc(N=Cc2cc(Cl)ccc2O)no1 | inconclusive [inhibitor, full curve, poor fit]
5 | Cc1ccc(NC(=O)C(C)Sc2nnc(-c3cccnc3)o2)cc1 (stereo not given) | inconclusive [inhibitor, single point]
6 | Cc1cc(NC(=O)C2CCN(C(=O)c3ccco3)CC2)ccc1Br | inconclusive [inhibitor, full curve, poor fit]
7 | O=C(O)C1CSC(c2ccccc2)N1C(=O)c1ccco1 (stereo not given) | inconclusive [inhibitor, single point]
8 | Cc1ccc(N(CCC#N)C(=O)COC(=O)c2cc(C)no2)cc1 | inconclusive [inhibitor, full curve]
9 | COc1ccccc1N=c1oc2c(OC)cccc2cc1C(=O)NCc1ccco1 | inactive
10 | CC12CCC(C(=O)NC(c3ccccc3)c3ccccc3)(OC1=O)C2(C)C (stereo not given) | inconclusive [inhibitor, partial curve, poor fit]
11 | O=S(=O)(Nc1ncccc1O)c1ccc(Cl)cc1 | inconclusive [inhibitor, full curve, poor fit]
12 | CCN(CC)CCCNC(=O)CSc1nc(-c2cccs2)cc(C(F)(F)F)n1 | inactive
13 | COc1cc(C2C(C(=O)c3ccc(C)o3)=C(O)C(=O)N2Cc2ccccc2)ccc1O (stereo not given) | inconclusive [inhibitor, full curve]
14 | O=C(O)C/C=C(\NC(=O)OCc1ccccc1)C(=O)OCc1ccccc1 | inconclusive [inhibitor, single point]
15 | Cc1c(Cl)cccc1NC(=O)CCN1CCN(C)CC1 | inconclusive [inhibitor, full curve, poor fit]
16 | COc1ccc(/C=N\NC(=O)c2ccccc2Br)cc1COc1ccc(F)cc1 | inconclusive [inhibitor, partial curve]
17 | CCOC(=O)CSc1nc2ccccc2c(=O)[nH]1 | inconclusive [inhibitor, partial curve, poor fit]
18 | Cn1nc(C(=O)NCc2ccc(F)cc2)c2c1-c1ccccc1S(=O)(=O)C2 | inconclusive [inhibitor, full curve]
19 | Cc1cc(C)c[n+](C(C)C(=O)c2ccc(-c3ccccc3)cc2)c1 (stereo not given) | inconclusive [inhibitor, partial curve, poor fit]
20 | COc1ccc(NC(=O)c2sc3nc(N4CCOCC4)c4c(c3c2N)CC(C(C)C)OC4)c(OC)c1 (stereo not given) | inconclusive [inhibitor, partial curve]
21 | COc1ccccc1NC(=O)CCCCC(=O)Nc1ccccc1OC | inconclusive [inhibitor, partial curve, poor fit]
22 | CC(C)Oc1ccc(/C(O)=C2/C(=O)C(=O)N(Cc3cccnc3)C2c2ccco2)cc1 (stereo not given) | inconclusive [inhibitor, partial curve, poor fit]

Row | SMILES | Potency
23 | O=C(NNC(=O)c1ccccc1F)c1cccc(-n2cccc2)c1 | inactive
24 | CCN1CCN(C(=O)C(NS(=O)(=O)c2ccc3nc(C)sc3c2)C(C)C)CC1 (stereo not given) | inactive
25 | Cc1cc(C(=O)N/N=C/c2cccs2)no1 | inactive
26 | C=CCN1C(=O)c2ccc(C(=O)N(CC)CC(=O)Nc3c(F)cccc3F)cc2C1=O | inconclusive [inhibitor, full curve, poor fit]
27 | CCOc1ccccc1N1CCN(C(=O)c2cccc(S(=O)(=O)N3CCOCC3)c2)CC1 | inconclusive [inhibitor, full curve, poor fit]
28 | COC(=O)c1ccc(C(=O)OC)c(NS(C)(=O)=O)c1 | inactive
29 | CCOCCCNC(=O)CCSc1ccc(C)cc1 | inconclusive [inhibitor, partial curve, poor fit]
30 | Cc1ccc2nc(-c3cc(-c4ccccc4)no3)cn2c1 | inactive
31 | COC(=O)N/N=C(\C)c1ccc(C)c([N+](=O)[O-])c1 | inconclusive [inhibitor, full curve]
32 | CCCCCSc1nnc2c(n1)OC(C)N(C(C)=O)c1ccccc1-2 (stereo not given) | inconclusive [inhibitor, full curve, poor fit]
33 | CC1=NCCN1CCNC(=O)Nc1cc(C)cc(C)c1 | inactive
34 | CCNc1ccc(Br)cc(C(=O)/C=C/c2ccc3c(c2)OCO3)c1=O | inconclusive [inhibitor, partial curve, poor fit]
35 | Cc1cc(C)c(C(N)=O)c(NC(=O)Nc2ccccc2Cl)n1 | inconclusive [inhibitor, partial curve]
36 | COCC(C)n1c(SCc2ccc(C(=O)OC)cc2)nc2ccccc2c1=O (stereo not given) | inconclusive [inhibitor, full curve, poor fit]
37 | Cc1ccc(/C=c2/sc3n(c2=O)CCCN=3)o1 | inconclusive [inhibitor, partial curve, poor fit]
38 | Cc1ccc(S(=O)(=O)Nc2ccc(-c3csc(-c4ccccc4)n3)cc2)cc1 | inconclusive [inhibitor, partial curve, poor fit]
39 | CCc1ccccc1NC(=O)C1CCN(C(=O)N2CC(C)Oc3ccc(Cl)cc32)CC1 (stereo not given) | inactive
40 | COc1ccccc1NC(=O)N1CCC(CN2CCc3ccccc3C2)CC1 | inactive
41 | COc1ccc(CNc2oc(Cc3cccc4ccccc34)nc2C#N)cc1 | inconclusive [inhibitor, full curve, poor fit]
42 | CC1(C)Cc2nc3sc4c(=O)n(CC(=O)NCc5ccco5)cnc4c3cc2CO1 | inconclusive [inhibitor, full curve, poor fit]
43 | O=C1c2ccccc2NC(c2cccc(O)c2)N1Cc1ccco1 (stereo not given) | inactive
44 | CCN(C(=O)COC(=O)c1cc(-c2cccs2)nc2ccccc12)C1CCS(=O)(=O)C1 (stereo not given) | inconclusive [inhibitor, full curve, poor fit]

Row | SMILES | Potency
45 | COc1ccc(CC(=O)N2CCOCC2)cc1 | inconclusive [inhibitor, partial curve, poor fit]
46 | O=C(CSc1c[nH]c2ccccc12)N1CCCc2ccccc21 | inconclusive [inhibitor, full curve]
47 | COc1ccc(NC2SC(=O)N(C)C2=O)cc1 (stereo not given) | inconclusive [inhibitor, single point]
48 | COc1ccc(-n2c(Cc3cccn3C)nnc2SCC(=O)Nc2cccc(Cl)c2)cc1 | inconclusive [inhibitor, full curve, poor fit]
49 | CCN1CCN(c2ccc(S(=O)(=O)N3CCCCC3)cc2NC(=O)COc2ccc(Cl)c(C)c2)CC1 | inactive
50 | CCCCN(C)S(=O)(=O)c1cc2c3c(c1)CCC(=O)N3CCC2 | inconclusive [inhibitor, full curve, poor fit]
51 | Cc1ccc(C)c(NC(=O)C(C)N2C(=O)c3ccccc3C2=O)c1 (stereo not given) | inconclusive [inhibitor, full curve, poor fit]
52 | O=C1C(=O)N(CCN2CCOCC2)C(c2ccccn2)/C1=C(/O)c1ccc(F)cc1 (stereo not given) | inconclusive [inhibitor, partial curve, poor fit]
53 | COc1ccc(CNc2nc3ccccc3n2CCN2CCCCC2)cc1 | inconclusive [inhibitor, full curve, poor fit]
54 | Cc1ccc(CC(=O)Nc2nncs2)cc1 | inconclusive [inhibitor, full curve, poor fit]
55 | COc1ccc(CC(=O)Nc2c3c(nn2C(C)(C)C)CS(=O)C3)cc1 (stereo not given) | inconclusive [inhibitor, full curve, poor fit]
56 | CCN(C(=O)CN1CCN(c2ccc(O)cc2)CC1)c1c(N)n(Cc2ccccc2)c(=O)[nH]c1=O | inconclusive [inhibitor, full curve, poor fit]
57 | Cn1c(Cc2ccccc2)nnc1SCC(=O)NC1CC1 | inconclusive [inhibitor, full curve, poor fit]
58 | Cn1c(=O)n(-c2cccc(Cl)c2)c(=O)c2c3c(sc21)COC(C)(C)C3 | inconclusive [inhibitor, full curve]
59 | Cc1ccc(CNC(=O)CSc2nc3c(sc4ccccc43)c(=O)n2CCCN2CCCC2)cc1 | inactive
60 | CCN(CC(=O)Nc1cccc(OC)c1)C(=O)c1cnc(Cl)c(Cl)c1 | inactive
61 | O=C(CCC1CCCC1)Nc1ccc([N+](=O)[O-])cn1 | inconclusive [inhibitor, full curve, poor fit]
62 | CC1Cc2ccccc2N1C(=O)CSc1nnc2n1C(C)(C)Cc1ccccc1-2 (stereo not given) | inconclusive [inhibitor, single point]
63 | CN1CCN(c2nc(Nc3ccc(O)cc3)nc3ccccc23)CC1 | inconclusive [inhibitor, single point]
64 | CN1C(=O)/C(=C\N2CCc3ccccc32)C(=O)NC1=S | inconclusive [inhibitor, partial curve, poor fit]
65 | NC(=O)C1CCN(c2nc(-c3ccc4ccccc4c3)cs2)CC1 | inconclusive [inhibitor, full curve, poor fit]
